This note sets out measurements from PubChem BioAssay AID1963576 (National Center for Advancing Translational Sciences (NCATS), 2024).

Hit rate of the full screen: of about 46,000 compounds, about 60 (0.1%) were called active. Roughly 3% stayed inconclusive and do not appear here. Calls come from the whole dose curve; as a rule, active = well fitted inhibition curve with a large enough effect; inconclusive = small, poorly fitted or top-dose-only effect; inactive = no such curve, though single readings can be large or run the other way. The list shows a part of the results.

The nature of this test: Primary qHTS assay for Inhibitors of ovarian cancer metastasis using an organotypic tumor microenvironment (TME) model.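 For activity change, negative = inhibition: plate controls were DMSO wells for no effect and tomatine positive control wells for full effect.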 Note: nearly all actives have a fitted effect of over 65% in size. The settings on record: SKOV3ip1-GFP adhesion/invasion on 3D omental model, fluorescence; series mostly up to 45.8 µM; activity change, negative = inhibition: at the top concentration. The gist of the method: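 qHTS, 4-pt dose (0.36-46 umol/L); SKOV3ip1-GFP, 1,200 cells/well, no FBS; primary omental fibroblast/mesothelial co-culture 48 h pre-grown; 2 h RT + 16 h 37 C; PBS wash, 4% PFA; GFP count 488/509 nm.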
Background: qHTS replaces the single test concentration by a dilution series.
As for `COc1ccc(-c2nc3ccccc3o2)cc1NC(=O)c1ccc(N2CCC(C)CC2)c([N+](=O)[O-])c1`, the compound was called inactive.
In the case of `Cc1ccnc(NS(=O)(=O)c2ccc(NC(=O)c3cc(=O)c4ccc(C)c(C)c4o3)cc2)n1`, the “activity change, negative = inhibition” value was inactive: 5.49%.
For `Cc1ccc2nc(N3CCN(C(=O)C4COc5ccccc5O4)CC3)sc2c1` (configuration not stated), the “activity change, negative = inhibition” value was inactive: -10.5%.
Regarding `CCOC(=O)c1cc(-c2ccc(C)cc2)n(CC(=O)Nc2cccc(C(C)=O)c2)c1C`, the outcome was inactive.
As to `COc1ccc(Cl)cc1NC(=O)c1c(C(=O)Nc2cccc(C)c2C)sc2nc(C)cc(=O)n12`, the “activity change, negative = inhibition” value is inactive: 28.6%.
Regarding `Cc1nn(Cc2ccccc2)c(C)c1NC(=O)c1cc(C(C)C)on1`, the “activity change, negative = inhibition” value is inactive: 3.57%.
Same read-out and setting: then `CN(C)CCNC(=O)Cc1ccc(NC(=O)N2CCCCc3ccccc32)cc1`, with inactive: 7.32%; and `CCOC(=O)c1sc(NC(=O)c2nc(SCC)ncc2Cl)c(C(=O)OCC)c1C`, with inactive: -12.3%.
For `CC1(C)CC(=O)c2cc(C(=O)Nc3ccc(Br)cc3)c(=O)n(-c3ccc(Cl)cc3)c2C1`, the result was inactive.
Consider `Cc1cc(Nc2cc(NC(=O)c3c(Cl)cccc3Cl)ccn2)nc(N)n1`, for which the “activity change, negative = inhibition” value is inactive: 44.6%.
In the case of `COCCCn1c(=N)c(S(=O)(=O)c2ccccc2)cc2c(=O)n3cccc(C)c3nc21`, the “activity change, negative = inhibition” value was inactive: 1.31%.
On to `Cc1ccc(C2c3cccn3CCN2S(=O)(=O)c2ccc([N+](=O)[O-])cc2)cc1` (configuration not stated), for which the “activity change, negative = inhibition” value was inactive: -4.67%.
Regarding `COc1ccc(Nc2oc(/C=C/c3ccc(F)cc3)nc2C#N)cc1`, the call was inactive.
In the case of `Cc1ccccc1OCc1nc2c3cnn(-c4ccccc4Br)c3ncn2n1`, the “activity change, negative = inhibition” value was inactive: -2.69%.
With `CCn1cc2nc(SCc3cc(C)ccc3C)n(Cc3ccc(C)cc3)c(=O)c2n1`, the result was inactive.
For the compound `Cc1oc(-c2ccccc2F)nc1Cn1c(SCc2ccccc2F)nc2ccncc21`, the result was inactive.
Regarding `COCCOc1nc(-c2ccc(Cl)c(Cl)c2)n(-c2ccc(NC(=O)CCl)cc2)n1`, the “activity change, negative = inhibition” value is inactive: 20.4%.
As for `COc1ccccc1N1CCN(C(=O)CCSCc2ccccc2F)CC1`, the outcome was inactive.
For `CCn1ccc2cc(S(=O)(=O)N3CCCN(C(=O)Nc4ccccc4C(F)(F)F)CC3)ccc21`, the outcome was inactive.
Take `CCOc1ccc(S(=O)(=O)N(CC(=O)NCCSCc2ccc(C)cc2)c2ccccc2)cc1`: the result was inactive.
Regarding `O=C(NCc1ccc(F)cc1)c1ccc(CS(=O)(=O)c2ccc(Cl)cc2)o1`, the “activity change, negative = inhibition” value was inactive: -1.32%.
Turning to `COc1cccc(CNC(=O)CSc2nc(=O)[nH]c3c2CCCC3)c1`, the “activity change, negative = inhibition” value was inactive: -7.33%.
Turning to `Cc1ccc2c(=O)cc(C(=O)Nc3nnc(CC(C)C)s3)oc2c1C`, the “activity change, negative = inhibition” value is inactive: -5.98%.
In the case of `COc1ccc(CCNC(=O)Cn2cc(S(=O)(=O)Cc3ccccc3F)c3ccccc32)cc1OC`, the “activity change, negative = inhibition” value is inactive: -2.47%.
For `CC1CCN(S(=O)(=O)c2ccc(N3CCCCS3(=O)=O)cc2)CC1`, the “activity change, negative = inhibition” value was inactive: 3.03%.
Turning to `Cc1cccc(Cn2c(=O)n(CCC(=O)NCc3ccc4c(c3)OCO4)c(=O)c3sccc32)c1`, the “activity change, negative = inhibition” value is inactive: -8.25%.
As for `O=C(CC1N=C2c3ccccc3N=C(SCC(=O)Nc3cccc(Cl)c3)N2C1=O)NCc1cccs1` (configuration not stated), the “activity change, negative = inhibition” value was inactive: -7.09%.
For `CCn1c(SCC(=O)Nc2ccc(C)cc2Br)nnc1-c1nonc1NC(C)=O`, the “activity change, negative = inhibition” value was inactive: -14.6%.
Same read-out and setting: then `CCc1ccc(NC(=O)c2ccc3c(c2)N(Cc2ccc(C)cc2)CCS3)cc1`, with inactive: -5.31%.
Turning to `COc1ccc2c(c1)Cc1sc(NC(=O)c3ccccc3Br)nc1-2`, the compound was classed as inactive.
For the compound `Cc1ccc(C)n1-c1nnc(N2CCC(C(=O)Nc3ccccc3Br)CC2)s1`, the “activity change, negative = inhibition” value is inactive: -12.8%.
Turning to `CCCN1CCc2nc(N3CCN(CC)CC3)ncc2C1`, the “activity change, negative = inhibition” value was inactive: 1.79%.
`Cc1ccc(OCCn2c(CNc3cccc(C)c3)nc3ccccc32)cc1`: the “activity change, negative = inhibition” value was inactive: 5.76%.
As to `CCc1ccccc1N(C)C(=O)C1CCCN(c2ncnc3onc(-c4ccc(F)cc4)c23)C1` (configuration not stated), the “activity change, negative = inhibition” value was inactive: 8.2%.
As to `CS(=O)(=O)NCC(c1ccco1)N1CCN(c2ccccc2)CC1` (configuration not stated), the result was inactive.
With `CCCCOC(=O)c1ccc(NC(=O)c2cc(-c3ccccc3)on2)cc1`, the “activity change, negative = inhibition” value is inactive: 4.36%.
Regarding `COc1ccc(N2Cc3cccc(C(=O)Nc4ccc(C(C)C)cc4)c3C2=O)cc1`, the call was inactive.
Consider `CCOc1cccc(C(=O)Nc2c(C(=O)c3ccc(OC)cc3)oc3ccccc23)c1`, for which the “activity change, negative = inhibition” value is inactive: 8.54%.
In the case of `COc1ccccc1CNc1cc(-c2ccccc2)nc2nncn12`, the call was inactive.
Regarding `O=C(CN(c1ccc(Cl)c(C(F)(F)F)c1)S(=O)(=O)c1ccccc1)N1CCc2ccccc2C1`, the “activity change, negative = inhibition” value is inactive: 9.19%.
As for `Cc1ccc(NC(=O)c2sc(-n3nc(C)c(CCC(C)C)c3C)nc2C)cc1C`, the “activity change, negative = inhibition” value is inactive: 0.827%.
For the compound `Cc1nc2ccn(Cc3cccs3)c(=O)c2cc1C(=O)N1CCN(c2ccc(F)cc2)CC1`, the “activity change, negative = inhibition” value is inactive: -8.34%.
Consider `CN1c2cc(Cl)ccc2-c2nc(SCC(=O)Nc3ccc(F)cc3F)ncc2S1(=O)=O`, for which the “activity change, negative = inhibition” value was inactive: -6.91%.
On to `CCOC(=O)c1cnc2c(C)c(Cl)ccc2c1Nc1ccc(C)cc1C`, for which the “activity change, negative = inhibition” value is inactive: 2.82%.
Turning to `CCN(C(=O)c1cc2c(Cl)nc3ccccc3c2s1)c1cccc(Cl)c1`, the call was inactive.
For `CC1=C(C(=O)Nc2cccnc2)C(c2ccc(F)cc2)n2nc(SCc3ccccc3F)nc2N1` (configuration not stated), the “activity change, negative = inhibition” value is inactive: -5.97%.
For `O=C(NC1CCCC1)c1ccc(CSc2nc3ccncc3n2Cc2ccccc2F)cc1`, the “activity change, negative = inhibition” value was inactive: 0.162%.
